# Test results published in PubChem BioAssay AID1345083 (National Center for Advancing Translational Sciences (NCATS), 2018).
# In all, about 94,000 compounds went through this assay and about 6,200 (6.6%) were called active. Inconclusive results, whose numbers are uncertain, are shown with a selection of clear calls. Calls come from the whole dose curve; as a rule, active = well fitted inhibition curve with a large enough effect; inconclusive = small, poorly fitted or top-dose-only effect; inactive = flat fitted curve, though single readings scatter. Where the call is inconclusive, the potency comes from a doubtful curve fit.
# Experiment: Cytotoxic Profiling in HEK 293 Cell Line of Diverse Libraries Using Quantitative High-Throughput Screening; note: nearly all actives have a fitted effect of over 60% in size
# Details: HEK 293 viability, ATP luminescence (CellTiter-Glo), 48-72 h; activity change, negative = cytotoxicity: at 115 µM (top of the series) unless noted; series mostly up to 115 µM
# In short: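 Read-out: CellTiter-Glo ATP luminescence. Cells: HEK 293, 250 cells/well. Exposure: 48 or 72 hr, 37 degree Celsius.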
# % is set by controls: 0 for no effect and ±100 for the full control effect; potency is the fitted concentration of half-maximal effect; tags give direction and shape of the fitted curve.
Compound,"activity change, negative = cytotoxicity",Potency,outcome
Cc1ccccc1C(=O)N1CCN(C(=O)c2nc3cccnc3n(C3CCCC3)c2=O)CC1,inactive: -3.37%,,
COCc1cc(C[C@@H]2CC[C@H](O)[C@@H](CNC(=O)Nc3ccccc3)O2)no1,,"inconclusive: 126 µM [inhibitor, single point]",
COC(=O)C1=CN(Cc2cccc(Cl)c2)S(=O)(=O)N=C1C,,"inconclusive: 79.4 µM [inhibitor, partial curve, poor fit]",
CN(C)c1ccc(CN2C[C@H](O)C[C@H]2c2nc(-c3ccncc3)no2)cc1,inactive: -11.8% [at 172 µM],,
Cc1nn(-c2ccccc2)c2c1C(C)N(C1CCCN(C(=O)c3ccccc3Cl)C1)C2=O (centres undefined),,active: 39.8 µM,
Cc1nc(CN2Cc3nc(-c4cc5ccccc5o4)ccc3OCC2=O)cs1,,active: 63.1 µM,
O=C1Nc2ccccc2CC12CCN(Cc1cncs1)C2 (centres undefined),inactive: 4.1% [at 172 µM],,
O=C(c1ccc(Cl)cc1)N1CCC([C@@H]2CNC[C@H]2CO)CC1,,"inconclusive: 89.1 µM [inhibitor, single point]",
COCCCn1c(=O)c(C(=O)N2CCN([S+](=O)([O-])c3cccc(C(F)(F)F)c3)CC2)nc2cccnc21,inactive: 2.16%,,
O=[S+]([O-])(c1cccc(C(F)(F)F)c1)N1CCCN(c2ccc3nnc(-c4ccccc4)n3n2)CC1,,"inconclusive: 79.4 µM [inhibitor, partial curve, poor fit]",
c1ccc2c(c1)CNC1(CCN(Cc3cccc4ccccc34)CC1)CO2,,active: 79.4 µM,
Cc1ccncc1C(=O)N1CCC(N2C(=O)C3(CCCC3)C2c2scnc2C)CC1 (centres undefined),inactive: -6.8%,,
Cc1ccc(-c2noc([C@@H]3CCCN3C(=O)c3ccc(Cl)cc3)n2)cc1,,"inconclusive: 50.1 µM [inhibitor, partial curve, poor fit]",
Cn1ncc2c(C(=O)NCc3ccccc3F)cc(-c3ccc(C(F)(F)F)cc3)nc21,,"inconclusive: 17.8 µM [inhibitor, full curve, poor fit]",
CC1(c2ccccc2)N(Cc2ccccc2F)C(=O)OC12CCN(C(=O)CCc1ccccn1)CC2 (centres undefined),,"inconclusive: 79.4 µM [inhibitor, single point]",
O=C(Cc1ccc(F)cc1)N1CCC2(CC1)CCN(CCc1ccccc1)c1ccccc1O2,,active: 44.7 µM,
Cc1ccc(-c2ccccc2CN2CCC(C(=O)N3CCN(c4ncccn4)CC3)CC2)cc1Cl,,"inconclusive: 79.4 µM [inhibitor, partial curve, poor fit]",
O=C(Cc1cccnc1)NC1CC(=O)N(Cc2cccc3ccccc23)C1 (centres undefined),inactive: -12.1%,,
CCOc1ccccc1C(=O)N1CCC2(CC1)N=C(c1cccc(Br)c1)NO2,,"inconclusive: 50.1 µM [inhibitor, partial curve, poor fit]",
Cc1cccc(C(=O)NCc2nnc3cc(-c4nc(C5CC5)no4)ccn23)c1,,"inconclusive: 79.4 µM [inhibitor, partial curve, poor fit]",
O=C(c1ccccc1F)N1CCc2nc(C3CC3)nc(-c3ccc(O)cc3)c2CC1,,"inconclusive: 89.1 µM [inhibitor, single point]",
Cc1ccc(-n2ncc3c2CCCC3NC(=O)c2cc(C(C)C)no2)cc1C (centres undefined),,"inconclusive: 39.8 µM [inhibitor, partial curve]",

Compound,"activity change, negative = cytotoxicity",Potency,outcome
CC(C)Cn1c(CNC(=O)OC(C)(C)C)nc2cccnc21,,"inconclusive: 112 µM [inhibitor, single point]",
COc1cc2cc(CN3CCC[C@@H]3CO)c(-c3cccc(Cl)c3)nc2cc1OC,,"inconclusive: 56.2 µM [inhibitor, partial curve, poor fit]",
O=C(CCC1CCCN(Cc2cn[nH]c2-c2ccc(F)cc2)C1)Nc1ccccc1F (centres undefined),,"inconclusive: 89.1 µM [inhibitor, single point]",
COC(=O)c1cccc(COCC2=CC(C)(C)COc3ccc(OC)cc32)c1,,active: 28.2 µM,
Cc1ccc(NC(=O)N2CCC(CCNC(=O)C3(c4ccccc4)CC3)CC2)cc1F,,"inconclusive: 50.1 µM [inhibitor, partial curve, poor fit]",
Cc1nc(-c2ccc(F)cc2)n(CC(=O)Nc2ccc3c(c2)OCO3)c(=O)c1CCO,,"inconclusive: 89.1 µM [inhibitor, single point]",
CNC(=O)CCn1ncc2cc(OC3CCc4cccc(-c5cccc(OC)c5)c43)ccc21 (centres undefined),,"inconclusive: 79.4 µM [inhibitor, partial curve, poor fit]",
CN1CCCC2(Cc3ccccc3CN([S+](=O)([O-])c3ccccc3)C2)C1 (centres undefined),inactive: -18.1%,,
COCCNC(=O)[C@@H]1C[C@H](Oc2cccnc2)CN1S(=O)(=O)c1cccc(OC)c1,,"inconclusive: 100 µM [inhibitor, single point]",
COc1ccc2[nH]cc(CCNC(=O)C3(Cc4ccccc4)CCCCC(=O)N3)c2c1 (centres undefined),inactive: -20.6%,,
COc1ccc(CNC(=O)N2CCCC(Cc3nncn3C(C)C)C2)cc1 (centres undefined),,,inactive
O=C(NCC(=O)N1CCC(Cc2ccccc2)CC1)c1cccc(-c2ccsc2)c1,,"inconclusive: 50.1 µM [inhibitor, partial curve, poor fit]",
O=C(NC1CCCC1)C1CCc2ncc(-c3ccc(F)cc3)n2C1 (centres undefined),,"inconclusive: 31.6 µM [inhibitor, partial curve, poor fit]",
COc1ccc(CNC(=O)C[C@@H]2CCNC[C@@H]2Cc2cc(C(C)(C)C)on2)cc1,,"inconclusive: 79.4 µM [inhibitor, partial curve]",
CCCCn1c(=O)c(C(=O)N2CCN(C(=O)c3ccc(C(F)(F)F)cc3)CC2)nc2cccnc21,,"inconclusive: 39.8 µM [inhibitor, full curve, poor fit]",
O=c1cc(N2CCOCC2)oc2c(-c3cncnc3)nccc12,inactive: -1.16% [at 172 µM],,
CC(C)CNC(=O)Cc1c[nH]c2ncc(-c3cnn(C)c3)cc12,inactive: -22.3% [at 172 µM],,
Cc1nn(-c2ccccc2[N+](=O)[O-])c(C)c1[C@@H]1C=C[C@@H](NC(=O)Nc2cccc(C#N)c2)C1,,active: 39.8 µM,
Fc1ccc(-c2noc([C@@H]3Cc4nc[nH]c4CN3Cc3ccccc3)n2)cc1Cl,,active: 70.8 µM,
COc1ccc(-c2noc([C@@H]3CCCN3C(=O)Cc3ccc(C)cc3)n2)cc1,,"inconclusive: 50.1 µM [inhibitor, partial curve, poor fit]",
Cc1ccc(CN2CCCC(c3nc(-c4cccnc4)no3)CCNC(=O)CC2)o1 (centres undefined),,"inconclusive: 56.2 µM [inhibitor, partial curve, poor fit]",
Cn1c(CO[C@H]2CN(S(=O)(=O)Cc3ccccc3)C[C@H]2F)nc2ccccc21,,"inconclusive: 100 µM [inhibitor, partial curve, poor fit]",

Compound,"activity change, negative = cytotoxicity",Potency,outcome
Cc1ncccc1-c1nc2cc(C(=O)NCc3ccccc3F)ccc2o1,,"inconclusive: 39.8 µM [inhibitor, full curve, poor fit]",
Cc1nnc2ccc(N3CCC(NC(=O)c4ccccc4Cl)CC3)nn12,inactive: -0.0568%,,
OC[C@@H]1CN(CCCc2ccccc2)C[C@H]1c1nc(C2CC2)no1,,"inconclusive: 89.1 µM [inhibitor, single point]",
COc1ccc(-c2ccc3nc(-c4cc5c(cc4Br)OCO5)oc3c2)c(OC)c1OC,inactive: -6.1%,,
O=C(c1nc(-c2cccc(C(F)(F)F)c2)c2ccccn12)N1CCN(c2ncccn2)CC1,,"inconclusive: 44.7 µM [inhibitor, partial curve, poor fit]",
CC(C)(C)C(=O)N1CCN(C(=O)c2nc3cccnc3n(Cc3ccccc3)c2=O)CC1,inactive: -12.4%,,
Cc1cnc(-c2ccccc2)n1CC1CCCN(Cc2ccc(C#N)cc2)C1 (centres undefined),,"inconclusive: 56.2 µM [inhibitor, partial curve, poor fit]",
O=C(Nc1cccc2ccccc12)O[C@@H]1CO[C@H]2[C@@H]1OC[C@@H]2n1nnnc1SC1CCCC1,,"inconclusive: 50.1 µM [inhibitor, partial curve, poor fit]",
O=C([C@@H]1CCCN1Cc1cc(=O)c2cc(F)ccc2[nH]1)N1CCCCC1,inactive: -10.6%,,
Cc1ccc(F)cc1CN1CCOc2cc([S+](=O)([O-])N(C)C)ccc2C1,,active: 39.8 µM,
O=C(NCc1cccc(Cl)c1)C1CCc2nnc(C3CCN([S+](=O)([O-])c4ccccc4Cl)CC3)n21 (centres undefined),,"inconclusive: 50.1 µM [inhibitor, partial curve, poor fit]",
COc1cc(CN2CCC3(CCCO3)CCC2=O)cc(OC)c1 (centres undefined),inactive: -0.647%,,
CCCCn1c(=O)c(C(=O)NCc2cccc(Cl)c2)nc2cccnc21,,"inconclusive: 50.1 µM [inhibitor, partial curve, poor fit]",
COc1cccc(CN2CCCCC23Cc2ccccc2CNC3=O)c1 (centres undefined),,"inconclusive: 50.1 µM [inhibitor, partial curve, poor fit]",
Clc1cc(NC2CCCCCC2)n2nccc2n1,,active: 89.1 µM,
O=C(NCc1ccccc1)C1=NO[C@@H]2CN(Cc3ccc(F)c(F)c3)C[C@H]12,,"inconclusive: 100 µM [inhibitor, partial curve, poor fit]",
O=C1CCC(C(=O)N2C[C@@H](COCC3CC3)[C@H](c3ccccn3)C2)=NN1,,"inconclusive: 39.8 µM [inhibitor, single point]",
COc1ccc(-c2cc3c(=O)n(CCNC(=O)c4ccsc4)ccn3n2)cc1,,"inconclusive: 11.2 µM [inhibitor, full curve]",
CCCN1CCN(C(=O)c2cc3c(s2)CCN(C(=O)c2ccc(F)cc2)C3)CC1,inactive: -25%,,
CCCC(O)CN1CCC(=O)N(Cc2ccccc2)Cc2ccccc21 (centres undefined),,"inconclusive: 89.1 µM [inhibitor, single point]",
